# According to PMC4336329 (PLoS ONE, 2015):
# About 2,200 (0.71%) of roughly 310,000 compounds showed an effect of 50% or more. The effect is printed as a negative number. This is one part of the list.
# Target: human ether-à-go-go-related gene (hERG) potassium channel (human, UniProt Q12809)
# Test: primary screen, population patch clamp on CHO cells stably expressing hERG
# human ether-à-go-go-related gene (hERG) potassium channel, sequence (Q12809 whole entry, looked up): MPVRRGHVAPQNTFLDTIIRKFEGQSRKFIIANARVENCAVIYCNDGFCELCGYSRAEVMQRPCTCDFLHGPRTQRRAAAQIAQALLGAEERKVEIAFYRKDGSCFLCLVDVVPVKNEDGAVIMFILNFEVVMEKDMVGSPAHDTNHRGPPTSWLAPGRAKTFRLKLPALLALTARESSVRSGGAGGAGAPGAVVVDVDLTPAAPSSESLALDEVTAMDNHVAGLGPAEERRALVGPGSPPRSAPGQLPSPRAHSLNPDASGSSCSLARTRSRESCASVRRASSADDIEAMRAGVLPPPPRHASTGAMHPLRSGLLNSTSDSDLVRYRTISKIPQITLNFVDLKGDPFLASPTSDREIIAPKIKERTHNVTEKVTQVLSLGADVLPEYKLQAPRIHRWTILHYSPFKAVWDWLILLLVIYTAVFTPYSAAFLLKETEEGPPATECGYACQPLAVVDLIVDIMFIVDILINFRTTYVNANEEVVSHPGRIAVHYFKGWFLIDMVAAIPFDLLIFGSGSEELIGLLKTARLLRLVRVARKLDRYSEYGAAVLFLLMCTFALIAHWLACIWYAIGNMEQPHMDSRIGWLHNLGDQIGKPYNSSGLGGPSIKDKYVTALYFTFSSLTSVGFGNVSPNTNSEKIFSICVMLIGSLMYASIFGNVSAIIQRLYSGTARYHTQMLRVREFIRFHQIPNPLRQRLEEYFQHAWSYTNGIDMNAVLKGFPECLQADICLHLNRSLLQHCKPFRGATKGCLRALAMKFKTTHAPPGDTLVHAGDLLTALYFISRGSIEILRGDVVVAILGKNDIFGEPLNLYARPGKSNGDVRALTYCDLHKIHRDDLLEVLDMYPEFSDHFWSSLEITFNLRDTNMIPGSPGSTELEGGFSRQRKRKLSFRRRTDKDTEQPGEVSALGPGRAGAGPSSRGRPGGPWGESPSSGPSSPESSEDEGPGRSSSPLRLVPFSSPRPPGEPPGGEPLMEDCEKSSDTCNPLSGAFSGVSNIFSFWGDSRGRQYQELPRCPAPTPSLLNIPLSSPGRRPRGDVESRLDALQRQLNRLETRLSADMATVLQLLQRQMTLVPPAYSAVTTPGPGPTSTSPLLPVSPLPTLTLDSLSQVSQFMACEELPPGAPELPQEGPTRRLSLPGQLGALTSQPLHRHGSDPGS
row,SMILES,"hERG current change (%, negative = inhibition) at 1uM [%]"
1,CCc1ccc(NC(=O)C2C3CCC(O3)C2C(=O)O)cc1 (centres unmarked),12.8
2,CCOC(=O)N1CCN(C(=O)c2ccc3c(c2)sc2nc(-c4ccccc4)cn23)CC1,-1.93
3,O=[N+]([O-])c1ccc(N/N=C/c2cccc(O)c2)cc1,12.3
4,COC(=O)N/N=C/c1cccc(OC(=O)c2ccc3c(c2)OCO3)c1,5.2
5,COc1cccc(OC)c1NC(=O)Cc1nn(C)c(=O)c2ccccc12,9.86
6,COc1ccc(OC)c(CNS(=O)(=O)c2c(C)nc3scc(C)n3c2=O)c1,18.2
7,CC(=O)Nc1ccc(C2=NN(Cc3nnc(-c4ccccc4)o3)C(=O)SC2)cc1,6.78
8,COc1cc(Cl)ccc1OCc1cc(C(=O)NC(C)Cc2cnccn2)no1 (centres unmarked),-3.23
9,O=C(NC1CCCc2ccccc21)N[C@@H](Cc1ccccc1)C(=O)O (some centres unmarked),-2.57
10,CC(NC(=O)C1CC2CCCC(C1)C2=O)c1ccccc1 (centres unmarked),0.665
11,CC(C)N(C(=O)COC(=O)CNS(=O)(=O)c1ccccc1F)c1ccccc1,11.8
12,O=C(OCc1ccccc1)/C(=C/c1cccc([N+](=O)[O-])c1)NC(=O)c1ccco1,-34.9
13,COc1ccc(CCNC(=O)C2CCN(C(=O)c3ccc(F)cc3)CC2)cc1OC,15.1
14,COc1ccc(NS(=O)(=O)c2cc(NC(=O)CC(C)(C)C)ccc2N2CCCC2)cc1,-0.956
15,CN(C)C(=O)CCC(=O)N1CCCC(C(=O)c2ccc(C(F)(F)F)cc2)C1 (centres unmarked),11.3
16,CC(=O)C1C(c2ccccc2)c2c(n[nH]c2C)CC1(C)O (centres unmarked),2.8
17,CC(C)(C)c1nc(CN2CCOCC2)cc(CN2CCOCC2)c1O.Cl,-2.95
18,N#CC1=C(N)n2c(s/c(=C\c3ccco3)c2=O)=C(C#N)C1c1ccco1 (centres unmarked),-14.9
19,O=C(OC1CCCCC1=O)c1cc(=O)c2ccccc2o1 (centres unmarked),13.8
20,Nc1nnc(SCC(=O)NC2CCCCCCC2)s1,12
21,CC(C)CNC(=O)NC(=O)COC(=O)c1cc([N+](=O)[O-])ccc1NCc1ccccc1Cl,3.41
22,COc1cc(/C=N/O)c(Br)cc1OCC(=O)Nc1ccccc1C,5.8

row,SMILES,"hERG current change (%, negative = inhibition) at 1uM [%]"
1,COc1ccc(N(C(=O)c2snc(C(N)=O)c2N)C(C(=O)NC2CCCCC2)c2ccc(C)o2)cc1 (centres unmarked),14.8
2,CSc1ncc(/C=C2/C(=O)NC(=O)N(c3ccc(C)cc3)C2=O)cn1,13.2
3,COc1ccc(-c2csc(NC(=O)c3ccc(S(=O)(=O)N4CCc5ccccc5C4)cc3)n2)c(OC)c1,14.1
4,COc1ccc(N2CCN(CC(=O)N3CCC(C)CC3)CC2)cc1,5.38
5,O=C(Nc1nnc(CCN2CCCCC2)s1)c1ccccc1Cl,5.3
6,O=C(c1ccc(Cl)cc1)c1ccc(OCC(O)CN2CCOCC2)cc1 (centres unmarked),10.9
7,COc1ccc2c(C)c(Cc3ccccc3)c(=O)oc2c1OC,9.24
8,CC(C)OCCCNC(=O)C(NS(=O)(=O)c1ccc2c(c1)c(=O)n(C)c(=O)n2C)c1ccccc1 (centres unmarked),6.63
9,CCc1ccc(OCCOCCN2CCN(C)CC2)cc1.O=C(O)C(=O)O,8.56
10,S=C1NCCOCCOCCNC(=S)N2CCOCCOCCN1CCOCCOCC2,13.2
11,COc1cccc(Cl)c1NC(=O)N1CCN(c2ccnc3cc(Cl)ccc23)CC1,12.8
12,Cc1cc(C)c(Cn2cnc(-c3ccc([N+](=O)[O-])cc3)c2)c(C)c1,8.82
13,Cc1ccc(-c2csc(NC(=O)N3CCOCC3)n2)cc1,6.24
14,CCOc1cccc(C2C(C#N)=C(N)Oc3cc(C)[nH]c(=O)c32)c1OCC (centres unmarked),11.1
15,CCOC(=O)N1CCN(c2nnc(-c3ccccc3)c3ccccc23)CC1,8.84
16,O=C(NC1CCCN(Cc2ccc(Cl)cc2)C1)c1ccoc1 (centres unmarked),-24.5
17,COc1ccc(C(=O)OCC(=O)Nc2cc(C)on2)c(OC)c1OC,13.4
18,CSCCC1NC2(C(=O)Nc3ccc(Cl)cc32)[C@@H]2C(=O)N(C3CCCC3)C(=O)[C@H]12 (some centres unmarked),0.174
19,O=C(CSc1nc2ccccc2c2nc3ccccc3n12)NCc1ccco1,-3.66
20,CC(=O)c1ccc(Sc2ccccc2)cc1,12.1
21,Cc1cccc(-n2ncc3c(Nc4c(C)n(C)n(-c5ccccc5)c4=O)ncnc32)c1,1.01
22,Cc1cccc(C)c1OCc1cc(C(=O)N(C)Cc2nc3ccccc3[nH]2)no1,-6.23

row,SMILES,"hERG current change (%, negative = inhibition) at 1uM [%]"
1,O=C(/C=C/c1ccccc1)C1=C(O)C(=O)N(CCO)C1c1cccc([N+](=O)[O-])c1 (centres unmarked),13.1
2,CCC(C)c1ccccc1NC(=O)C(C)OC(=O)CN1C(=O)NC(C)(C)C1=O (centres unmarked),7.31
3,COc1cc(Nc2ccc(S(=O)(=O)N3CCN(C)CC3)cc2[N+](=O)[O-])cc(OC)c1,9.37
4,CCOC(=O)c1cc(C(=O)c2cccs2)n2ccc(C(C)=O)cc12,15
5,O=C(Nc1ccccc1C(=O)N1CCCC1)c1ccccc1,7.18
6,CC(=O)OCC(=O)[C@@]1(O)CC[C@H]2[C@@H]3CCC4=CC(=O)CC[C@]4(C)[C@H]3[C@@H](O)C[C@@]21C,9.06
7,CC(=O)c1c(COC(=O)c2ccc(Cl)cc2)nc2ccccc2[n+]1[O-],9.84
8,COC(=O)C1=C(C)N(CC2CC2)C(=O)N[C@H]1c1ccccc1,13.8
9,COc1ccc(NC(=O)CSc2nnc(Cn3nnc4ccccc43)n2C)cc1,6.2
10,CCc1ccccc1N(C)S(=O)(=O)c1ccc(-c2cc(C)no2)s1,16
11,COc1ccc(Nc2nnc(-c3ccncc3)s2)cc1Cl,13.9
12,COC(=O)Cn1cnc2c(nnn2-c2cccc(OC)c2)c1=O,13
13,CN1CCN(c2ccccc2NC(=O)Cn2ncc3c([nH]c4ccccc43)c2=O)CC1,-0.453
14,COc1ccc(C(=O)N/C(=C\c2cccs2)C(=O)N2CCN(C)CC2)cc1OC,-33.9
15,Nc1nnc(SCC(=O)OCC(=O)c2ccccc2)s1,5.25
16,CCCNc1c(N)c(=O)oc2ccccc12,-2.56
17,Cc1nonc1OCCNc1ccc([N+](=O)[O-])cc1,-17.1
18,CN(CC(=O)Nc1ccc(N2CCOCC2)cc1)C(=O)CSc1ccc(Br)cc1,9.94
19,COCCOc1cnn(-c2cc(Oc3ccc(C)cc3)ncn2)c(=O)c1Cl,7.88
20,CCN(CC)CCNC(=O)c1ccc(NC(=O)c2ccc(F)cc2)cc1,2.19
21,CCOC(=O)c1ccc(NC(=O)c2ccc(C)c(S(=O)(=O)N3CCOCC3)c2)cc1,1.28
22,C1COCCO1.Cc1cc(C)c2nc(Nc3nc(-c4ccccc4)cc(=O)[nH]3)nc(C)c2c1,7.45

row,SMILES,"hERG current change (%, negative = inhibition) at 1uM [%]"
1,Cc1ccc(S(=O)(=O)NCC2CCCO2)cc1 (centres unmarked),12.3
2,Brc1cc2c(cc1-c1nc3ccccc3s1)OCO2,12.9
3,Cc1cc(NC(=O)CCC(=O)N(c2ccccc2)C(C(=O)NC2CCCC2)c2ccccc2F)no1 (centres unmarked),6.52
4,COc1ccc(CCC(=O)Nc2cccc(Cl)c2)cc1,2.87
5,CCCCNC(=O)N1CCN(C(=O)C2CCCO2)CC1 (centres unmarked),9.05
6,C=CCNC(=O)N1c2ccccc2Sc2ccccc21,-3.91
7,COc1ccc(OC)c(CN2CCC(C(=O)N3CCOCC3)CC2)c1.O=C(O)C(=O)O,15
8,Cl.O=C(OCCN1CCOCC1)c1cccc(F)c1,14.5
9,COc1ccc(NC(=O)c2ccco2)c([N+](=O)[O-])c1,9.74
10,C=CCNC(=S)N1CCC(C(=O)c2ccc3c(c2)OCCO3)CC1,-3.19
11,Cn1cc(C(=O)c2ccc(Cl)cc2Cl)cc1C(=O)NN,11.4
12,CCCCN1C(=O)C(CC(=O)NCC)SC1=Nc1ccccc1 (centres unmarked),4.72
13,COc1ccccc1C(=O)N1CCN(C2CCN(Cc3ccccc3)CC2)CC1,0.255
14,Cc1ccc(S(=O)(=O)Oc2ccccc2/C=N/NC(=O)c2c(Cl)cnn2C)cc1,8.85
15,O=C(NCc1ccccc1)/C(=C\c1ccc([N+](=O)[O-])cc1)NC(=O)c1ccco1,-19.6
16,COc1ccc2[nH]c(=S)cc(C)c2c1,17.4
17,Clc1ccc(-c2nc(NCCN3CCOCC3)c3ccccc3n2)cc1,-16.9
18,CCCOc1ccc(/C=C/C(=O)Nc2ccc([N+](=O)[O-])cc2C)cc1OC,5.35
19,COC(=O)[C@@H]1CC[C@H](C)[C@@H](c2ccc(C)cc2)N1C(=O)c1ccc(/C=N/O[C@@H](C)c2cn([C@H](CO)Cc3ccccc3)nn2)cc1,6.35
20,CCN(CC)CCN(Cc1cc2cc3c(cc2[nH]c1=O)OCO3)C(=S)NCC(C)C,-2.18
